Experimental data reported in PubChem BioAssay AID1745853 (National Center for Advancing Translational Sciences (NCATS), 2022).
The other results are listed elsewhere or left out. Shown are side measurements of this screen, not its main read-out; they come without a call.

Legend:
Experiment in all cases: Primary Screen for Target Class Profiling of Small Molecule Inhibitors of Methyltransferases
[1] = target: Glycine N-methyltransferase (Homo sapiens) (UniProt Q14749); settings: purified enzyme, MTase-Glo SAH luminescence; measured here: GNMT inhibition; at 40 µM; stronger effect = lower value
In short: (§1)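 Each enzyme was reacted with SAM and its substrate, with compounds tested once at 40 uM; SAH formed was read by MTase-Glo luminescence.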

[2] = target: Guanidinoacetate N-methyltransferase (Homo sapiens) (UniProt Q14353); settings: purified enzyme, MTase-Glo SAH luminescence; measured here: GAMT inhibition; at 40 µM; stronger effect = lower value
In short: as §1

[3] = target: Histamine N-methyltransferase (Homo sapiens) (UniProt P50135); settings: purified enzyme, MTase-Glo SAH luminescence; measured here: HNMT inhibition; at 40 µM; stronger effect = lower value
In short: as §1

[4] = target: Nicotinamide N-methyltransferase (Homo sapiens) (UniProt P40261); settings: purified enzyme, MTase-Glo SAH luminescence; measured here: NNMT inhibition; at 40 µM; stronger effect = lower value
In short: as §1

[5] = target: Phenylethanolamine N-methyltransferase (Homo sapiens) (UniProt P11086); settings: purified enzyme, MTase-Glo SAH luminescence; measured here: PNMT inhibition; at 40 µM; stronger effect = lower value
In short: as §1
% is set by controls: 0 for no effect and ±100 for the full control effect.

Row | Structure (SMILES) | activity change, negative = inhibition [1] | activity change, negative = inhibition [2] | activity change, negative = inhibition [3] | activity change, negative = inhibition [4] | activity change, negative = inhibition [5]
1 | COc1cc2c(cc1O)CC[C@@H]1[C@@H]2CC[C@]2(C)[C@@H](O)CC[C@@H]12 | -5.64% | 8.04% | 2.82% | -6.03% | -5.95%
2 | Cc1ccccc1NC(=O)CSc1nnc2[nH]c(=O)c(C(C)(C)C)nn12 | 12.2% | 0.573% | 6.96% | -1.54% | 3.6%
3 | CN(Cc1ccccc1)Cc1nc(C2CCOC2)no1 (configuration not stated) | -2.52% | -1.11% | -1.15% | -0.37% | -3.18%
4 | O=C(Nc1ccc(Oc2ccccc2)cc1)O[C@@H]1CO[C@H]2[C@@H]1OC[C@@H]2n1nnnc1-c1ccc(-c2ccccc2)cc1 | -6.12% | -5.69% | -9.98% | -9.22% | -17.8%
5 | CC(C)NC[C@H](O)COc1ccc(CCOCC2CC2)cc1 | -2.45% | -3.93% | 9.43% | -10.3% | 0.839%
6 | CCCCOc1ccc(-c2cc3n(n2)CC(C)(C(=O)NC2CCCCC2)N(CCCOC)C3=O)cc1 (configuration not stated) | -1.35% | 0% | 3.7% | 1.92% | 2.52%
7 | Cc1ccc(Cl)cc1NC(=O)CSc1nnc2n(CCC(C)C)c(=O)c3ccccc3n12 | -0.551% | 0% | 9.39% | -8.2% | 2.7%
8 | CCCCC1CCN(CCCN2C(=O)CCc3ccccc32)CC1 | -0.995% | -6.34% | -12.8% | -15.6% | -18.2%
9 | CCOCCCNc1nc2c(S(=O)(=O)c3cc(C)ccc3C)nnn2c2ccccc12 | -5.2% | 4.37% | 4.05% | -4.15% | -2.01%
10 | COCCN(C(=O)c1cc(OC)c(OC)c(OC)c1)c1nc(-c2ccccc2)cs1 | 2.81% | 4.56% | 13.8% | -13.2% | 0.376%
11 | CC(C)c1cc2n(n1)CC(C)(C(=O)NC1CCCCCC1)N(Cc1ccccc1Cl)C2=O (configuration not stated) | -0.534% | 0% | 2.8% | 4.82% | -1.1%
12 | COc1ccccc1-c1ccc(CN2CCCC(c3nc4ccc(C)cc4c(=O)[nH]3)C2)cc1 (configuration not stated) | -7.92% | -8.1% | -14% | -20.7% | -4.28%
13 | O=C(Cn1ccc2cc(S(=O)(=O)N3CCCCC3)ccc21)NCCc1c[nH]c2ccccc12 | 7.42% | 4.54% | -11.5% | 2.14% | 1.58%
14 | Cc1ccc(NC(=O)N2CCn3c(C)ccc3C2C(C)C)cc1F (configuration not stated) | 11% | 0% | 5.67% | -1.63% | 1.84%
15 | CCOC(=O)C1CCN(c2nc3c(S(=O)(=O)c4ccc(C(C)C)cc4)nnn3c3ccccc23)CC1 | 2.15% | 0% | 6.71% | 4.26% | -0.811%
16 | CC1(C(=O)NC2CCCCCC2)Cn2nc(-c3ccco3)cc2C(=O)N1c1cccc(F)c1 (configuration not stated) | 3.1% | 4.78% | 5.26% | 2.07% | 1.09%
17 | CCCCCCCCCCCCCCCCCCOC[C@H](COP(=O)([O-])OCC[N+](C)(C)C)OC | 2.85% | 15.5% | 9.11% | -14% | 2.93%
18 | CCN(CC)CCCNC(=O)c1cc2n(n1)CC(C)(C(=O)NC1CCCCCC1)N(C)C2=O (configuration not stated) | 4.32% | 0.088% | 3.34% | 7.71% | 2.84%
19 | COC(=O)C1=C(C)NC(C)=C(C(=O)OC)C1c1ccccc1[N+](=O)[O-] | -31.2% | 10.9% | 6.18% | -4.25% | 3.17%
20 | COc1cccc(N2C(=O)NC(=NC3CCCC3)C23CCCN(Cc2cccn2C)C3)c1 (configuration not stated) | -15.5% | -11.4% | -8.06% | -25% | -1.98%
21 | O=C(Nc1cccc2cccnc12)c1ccc(N2C(=O)[C@@H]3C4C=CC(C4)[C@@H]3C2=O)cc1 | -5.92% | -8.34% | 5.76% | -16.4% | -2.49%
22 | NC(=O)c1cccc2[nH]c(-c3ccc(C4CCCN4)cc3F)nc12 (configuration not stated) | -12.9% | – | -69% | – | –
23 | CC1(C)CC[C@]2(C(=O)O[C@@H]3O[C@H](CO)[C@@H](O)[C@H](O)[C@H]3O)CC[C@]3(C)C(=CCC4[C@@]5(C)C[C@H](O)[C@H](O[C@@H]6O[C@H](C(=O)O)[C@@H](O)[C@H](O)[C@H]6O)[C@@](C)(CO)C5CC[C@]43C)C2C1 (some centres not stated) | -3.57% | -10.4% | 7.22% | -22.3% | -0.269%
24 | CC(C)CCN1C(=O)c2nc3ccccc3n2CC1(C)C(=O)NC1CCCC(C)C1C (configuration not stated) | 8.38% | 1.85% | 10.3% | 14.3% | 5.25%
25 | COCCN1Cc2sccc2N(CC(O)COc2ccc(OC)cc2)CCC1=O (configuration not stated) | -15.5% | -7.37% | -2.76% | -9.13% | -12.3%
26 | O=C(NCc1ccc(F)cc1)N1CCCC(Cc2noc(-c3cccnc3)n2)C1 (configuration not stated) | -4.38% | -9.99% | -4.39% | -1.15% | -7.36%
27 | CC(C)C1c2cccn2-c2sc3c(c2CN1C(=O)NCc1ccccc1)CCCC3 (configuration not stated) | -5.74% | -4.42% | -3.72% | -13.3% | -6.06%
28 | Nc1nccc(-c2c(-c3ccc(F)cc3)ncn2C2CCCCC2)n1 | -1.68% | -1.31% | -0.472% | -24.6% | -5.66%
